Measurements taken from US20050282752A1 (published 2005).

Biological target: T1, biotinylated human IL-1RI (human, UniProt P14778 18-336, biotinylated)
T1 chain: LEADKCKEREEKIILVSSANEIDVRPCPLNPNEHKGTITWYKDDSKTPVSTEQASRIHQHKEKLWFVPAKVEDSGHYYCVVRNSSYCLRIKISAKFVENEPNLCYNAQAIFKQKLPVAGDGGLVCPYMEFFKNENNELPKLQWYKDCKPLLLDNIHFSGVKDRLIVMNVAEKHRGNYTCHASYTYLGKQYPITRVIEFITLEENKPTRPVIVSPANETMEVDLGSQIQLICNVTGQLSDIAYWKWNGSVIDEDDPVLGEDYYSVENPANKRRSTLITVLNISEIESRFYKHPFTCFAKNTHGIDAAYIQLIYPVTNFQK
Test: IGEN (ECL) competition, inhibition of IL-1 signaling complex formation

B1: IL-1ra wild-type protein (human recombinant interleukin-1 receptor antagonist having the sequence of SEQ ID NO: 5) (ligand)
chain: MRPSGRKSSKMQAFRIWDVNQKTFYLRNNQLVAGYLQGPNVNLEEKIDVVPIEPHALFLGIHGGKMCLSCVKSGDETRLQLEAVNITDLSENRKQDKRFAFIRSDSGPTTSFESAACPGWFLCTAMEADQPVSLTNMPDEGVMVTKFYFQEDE
B1 was tested, and the EC50 was 0.712 nM.

B2: IL-1ra R97D mutant protein (ligand)
chain: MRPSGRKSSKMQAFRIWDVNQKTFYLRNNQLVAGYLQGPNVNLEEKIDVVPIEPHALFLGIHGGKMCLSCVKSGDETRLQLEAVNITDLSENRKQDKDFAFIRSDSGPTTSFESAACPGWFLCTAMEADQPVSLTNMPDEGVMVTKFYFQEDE
B2 gave an EC50 of 0.902 nM.
